92 sequences from the supplement of paper PMC10338343 can be followed below.

± gives the standard deviation. In all, about 5,500 sequences were measured (“pre-steady-state target cleavage rate”: median about 0.1, highest 2% from about 0.64 on). The entries are a selection whose mix differs from that of the whole data set.

The assay concerns MIWI (PIWIL1) piRISC loaded with piRNA #2 (30 nt). Description: pre-steady-state target cleavage rate (min^-1); MIWI and MILI are mouse PIWI proteins and EfPiwi is from a freshwater sponge; tags in brackets are library labels; higher = faster piRNA-guided slicing of the target. The note with it: guide: piRNA #2 5'p-UUAGGUAACCCAGUAGAUCCAGAGGAAUUC; auxiliary factor: 500 nM mouse GTSF1. How it is done: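 Cleave-'n-Seq: a library of target RNAs (target site embedded in constant flanks, ACAGCATTCCGCGTTAGTGATATCCG... 5' flank; DNA-blocked outside the site) at 0.1 nM was incubated with 1 nM active mouse MILI or MIWI piRISC (synthetic 5'-monophosphorylated piRNA guide) with or without 500 nM mouse GTSF1 at 33 °C for 1 min to 16 h. Uncleaved targets were sequenced and normalised to non-target controls, and the pooled three trials were fitted to a burst-and-steady-state model to give the pre-steady-state cleavage rate (min^-1; k3 is constrained to at most 1e-4). Sequence is the target site only; target names encode pairing extent (gX:gY) and contiguous / 1-mismatch / 2-mismatch / bulge geometry. Fits with R² ≤ 0 are excluded.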
CUAUUCCUCUGGAUCUACUGGGUUACCGAA: the “pre-steady-state target cleavage rate” value was determined as 0.295 ± 0.066.

Take CUUAACCUCUGGAUCUAUUGGGUUACCUAA: the “pre-steady-state target cleavage rate” value came out at 0.0875 ± 0.015.

Consider CUUUUGCUCUGGAUCUACUCGGUUACCUAA, for which the “pre-steady-state target cleavage rate” value is 0.0506 ± 0.0086.

For the sequence GAAUUCCUGUCGAUCUACUGGGUUACCUAA, the “pre-steady-state target cleavage rate” value amounted to 0.504 ± 0.055.

Consider CUAUUCCUCUGGAUCUACUGCGAUACCUAA, for which the “pre-steady-state target cleavage rate” value turned out to be 0.171 ± 0.033.

As to CAAUUCCUCAGGAUCUACUCGGUUACCUAA, the “pre-steady-state target cleavage rate” value was found to be 0.106 ± 0.019.

Turning to CUUAAGGUGUGGAUCUACUGCGUUACCUAA, the “pre-steady-state target cleavage rate” value amounted to 0.0822 ± 0.015.

CAAUUCCUCUGGAUCUACAGCGUUACCUAA: the “pre-steady-state target cleavage rate” value came to 0.187 ± 0.027.

With GAAUUCCUCUGGAUCUACUGGGUAUCCUAA, the “pre-steady-state target cleavage rate” value came out at 0.234 ± 0.078.

For CAAUUCGUCUGGAUCUACUGGGUUUCCUAA, the “pre-steady-state target cleavage rate” value was 0.469 ± 0.067.

As to CUUAAGGUCUGGAACUACUCGGUUACCUAA, the “pre-steady-state target cleavage rate” value came to 0.0293 ± 0.025.

In the case of CUUAACCUCUGGUUCUACAGGGUUACCUAA, the “pre-steady-state target cleavage rate” value turned out to be 0.225 ± 0.03.

With CAAUUCCUCUGGAUCUACUGGGUAUGCUAA, the “pre-steady-state target cleavage rate” value turned out to be 0.0159 ± 0.006.

CUAUUCCUCUGGAUCUGCUGGGUUACCUAA: the “pre-steady-state target cleavage rate” value stood at 0.509 ± 0.067.

On to CUUAAGCUCUGGAACUACAGGGUUACCUAA, for which the “pre-steady-state target cleavage rate” value was 0.145 ± 0.013.

With CUAUUGCUCUGGAUCUAGUGGGUUACCUAA, the “pre-steady-state target cleavage rate” value is 0.0449 ± 0.0082.

With CAAUUCCUCUGGUUCUACUGGCUUACCUAA, the “pre-steady-state target cleavage rate” value was determined as 0.181 ± 0.018.

CUUAUCCUCUGGAUGUACUGGGAUACCUAA: the “pre-steady-state target cleavage rate” value came to 0.146 ± 0.025.

CUUAAGGAGACCUAGAAGUGCGUUACCUAA: the “pre-steady-state target cleavage rate” value is 0.00455 ± 0.0012.

Take CUAUUCCUCUGGAUCUACUGGGGUUACCUAA: the “pre-steady-state target cleavage rate” value amounted to 0.0442 ± 0.011.

Turning to GAAUUCCUCUGCAUCAACUGGGUUACCUAA, the “pre-steady-state target cleavage rate” value is 0.425 ± 0.046.

On to CUUUUCCUCUGGAUCUACUGGGUUUCCUUA, for which the “pre-steady-state target cleavage rate” value amounted to 0.253 ± 0.056.

As to CUUAAGCUGUGGAUCUACUGGGUUAGCUAA, the “pre-steady-state target cleavage rate” value worked out at 0.0688 ± 0.021.

CUUAAGGAGUGGAACUACUGGGUUACCUAA: the “pre-steady-state target cleavage rate” value was 0.0357 ± 0.024.

For CUUAAGGUCUGGAUGUAGUGGGUUACCUAA, the “pre-steady-state target cleavage rate” value was 0.00804 ± 0.0064.

Regarding CUUAAGGAGACCAUCUAGUGCGUUACCUAA, the “pre-steady-state target cleavage rate” value worked out at 0.00477 ± 0.0027.

Consider CAUUUCCUCAGGAUCUACUGGGUUACCUAA, for which the “pre-steady-state target cleavage rate” value turned out to be 0.701 ± 0.054.

As for GUAUUCCUCUGGAUCUACUGGGUUACCUAA, the “pre-steady-state target cleavage rate” value stood at 0.0746 ± 0.032.

With CUAUUCCUCUGGAUCUACUGGCUUACGUAA, the “pre-steady-state target cleavage rate” value was found to be 0.0802 ± 0.022.

CUUUUCCUCAGGAUCUACUGGGUUUCCUAA: the “pre-steady-state target cleavage rate” value is 0.371 ± 0.056.

With CUAUUCCUCUCGAUCUACUGGGUAACCUAA, the “pre-steady-state target cleavage rate” value came out at 0.398 ± 0.041.

As for CUAUUCCUCUGGAUCUUCUGGGUUAGCUAA, the “pre-steady-state target cleavage rate” value was 0.148 ± 0.049.

Turning to CAAUUCCUCUCGAUCUACUGGGUAACCUAA, the “pre-steady-state target cleavage rate” value was determined as 0.476 ± 0.058.

Take CAAUUCGUCUGGAUCUAGUGGGUUACCUAA: the “pre-steady-state target cleavage rate” value amounted to 0.0607 ± 0.015.

Consider CUAUUCCUCUGGAUCUACAGGGUUACGUAA, for which the “pre-steady-state target cleavage rate” value is 0.3 ± 0.03.

Take CUUAUCCUCUGGAUCUAGUGGGAUACCUAA: the “pre-steady-state target cleavage rate” value was found to be 0.0912 ± 0.02.

On to CUAUUCCUCUGGAUCUAAUGGGUUACCUAA, for which the “pre-steady-state target cleavage rate” value was 0.17 ± 0.026.

Consider CUUUUCCUCUCGAUCUACUGGGUUACCUUA, for which the “pre-steady-state target cleavage rate” value turned out to be 0.539 ± 0.05.

As for CUAUACCUCUGGAUCAACUGGGUUACCUAA, the “pre-steady-state target cleavage rate” value was found to be 0.372 ± 0.043.

Regarding GAAUUCCUCUGGAUCUACUGGGUUACGAUA, the “pre-steady-state target cleavage rate” value is 0.296 ± 0.045.

In the case of CUUUUCCUCUGGAUCAACUCGGUUACCUAA, the “pre-steady-state target cleavage rate” value was 0.0775 ± 0.014.

For CUUAAGCUCUGAAUCUACUGGGUUACCUAA, the “pre-steady-state target cleavage rate” value is 0.0585 ± 0.014.

Consider CUUAAGGAGAGGAUCUACUGGGUUACGUUA, for which the “pre-steady-state target cleavage rate” value was determined as 0.00644 ± 0.0042.

As to CUUAUCCUCUGGAACUACUGGGUUACGUAA, the “pre-steady-state target cleavage rate” value was determined as 0.48 ± 0.03.

As for GAAUUCCUCUGGAACUACAGGGUUACCUAA, the “pre-steady-state target cleavage rate” value is 0.281 ± 0.034.

With CUAUACCUCUGGAUCUACUGGGUUAGCUAA, the “pre-steady-state target cleavage rate” value worked out at 0.388 ± 0.044.

For the sequence CUUAAGGAGGGGAUCUACUGGGUUACCUAA, the “pre-steady-state target cleavage rate” value is 0.045 ± 0.016.

Consider CUAAUCCUCUGGAUCAACUGGGUUACCUAA, for which the “pre-steady-state target cleavage rate” value stood at 0.381 ± 0.043.

Consider GAAUUCCUCUGGAUCUACUGGGUAUGCUAA, for which the “pre-steady-state target cleavage rate” value was 0.124 ± 0.031.

Regarding CUUAAGGACUGGAUCUACAGGGUUACGUAA, the “pre-steady-state target cleavage rate” value was determined as 0.23 ± 0.047.

Regarding GAAUUGCCUCUGGAUCUACUGGGUUACCUAA, the “pre-steady-state target cleavage rate” value is 0.0426 ± 0.02.

On to CUUUCCCUCUGGAUCUACUGGGUUACCUAA, for which the “pre-steady-state target cleavage rate” value was determined as 0.305 ± 0.036.

CUUAACCUCAGGAUCUACUGGCUUACCUAA: the “pre-steady-state target cleavage rate” value is 0.06 ± 0.014.

In the case of CUUAACGUCUGGAUCUACUGGGUUACCAAA, the “pre-steady-state target cleavage rate” value stood at 0.238 ± 0.024.

In the case of CAAUUGCUCUGGAUCUUCUGGGUUACCUAA, the “pre-steady-state target cleavage rate” value stood at 0.207 ± 0.036.

In the case of GAAUUGCUCUGGAUCUACUGGGUUACCUAA, the “pre-steady-state target cleavage rate” value came out at 0.0741 ± 0.026.

With CUAUUGCUCAGGAUCUACUGGGUUACCUAA, the “pre-steady-state target cleavage rate” value came out at 0.437 ± 0.042.

For CUUUUCCUCUGAGAUCUACUGGGUUACCUAA, the “pre-steady-state target cleavage rate” value was 0.384 ± 0.031.

Take CAAUUCCUCUGGAUCUACUGGGUUAGCCUAA: the “pre-steady-state target cleavage rate” value stood at 0.651 ± 0.079.

As to CUUAAGCUCUGGAUCUACUGGGUUAUCUAA, the “pre-steady-state target cleavage rate” value worked out at 0.187 ± 0.028.

As to CUUUUGCUCUGGAUGUACUGGGUUACCUAA, the “pre-steady-state target cleavage rate” value was 0.282 ± 0.023.

Consider CUUUUCCUCUGGAUCUACACCGUUACCUAA, for which the “pre-steady-state target cleavage rate” value was determined as 0.0786 ± 0.0085.

For CUAUUCCUCUGCAUCUACUGGGUAACCUAA, the “pre-steady-state target cleavage rate” value came out at 0.242 ± 0.029.

Take CUUAAGCUCUGGAUGUACUCGGUUACCUAA: the “pre-steady-state target cleavage rate” value is 0.0534 ± 0.016.

Take CUUAAGCUCUGGAUCUACUGGUUACCUAA: the “pre-steady-state target cleavage rate” value turned out to be 0.014 ± 0.0048.

Take CUUAAGGACUGGAUCUACUGGGUUACCAAA: the “pre-steady-state target cleavage rate” value was determined as 0.0324 ± 0.026.

For CUUAAGGUCUGGAUAUACUGGGUUACCUAA, the “pre-steady-state target cleavage rate” value is 0.242 ± 0.033.

As for CUAUUCCUCUGGAUGUACAGGGUUACCUAA, the “pre-steady-state target cleavage rate” value amounted to 0.468 ± 0.03.

Consider CUUUUCCUCUGGAUCUACUGGGAAUCCUAA, for which the “pre-steady-state target cleavage rate” value amounted to 0.168 ± 0.053.

On to GAAUUCCUCUGGAUCUACUGGGUUUACCUAA, for which the “pre-steady-state target cleavage rate” value was 0.322 ± 0.047.

Turning to CUUAAGGUCUCGAUCUACUGGGUUAGCUAA, the “pre-steady-state target cleavage rate” value was determined as 0.0797 ± 0.015.

For CUUUUCCUUUGGAUCUACUGGGUUACCUAA, the “pre-steady-state target cleavage rate” value was 0.469 ± 0.038.

As to CUUAUCCUCUGGAUGUACUCGGUUACCUAA, the “pre-steady-state target cleavage rate” value was determined as 0.0802 ± 0.03.

As for CUUAAGCUCUCGAACUACUGGGUUACCUAA, the “pre-steady-state target cleavage rate” value turned out to be 0.198 ± 0.024.

On to CAAUUCCUCUGGAUCUACUGGGUUACUCUAA, for which the “pre-steady-state target cleavage rate” value turned out to be 0.264 ± 0.048.

In the case of CAAUUCCUCUCGAUCUACUGGGUUACCAAA, the “pre-steady-state target cleavage rate” value was found to be 0.904 ± 0.073.

As to CAAUUCCUCUGGAUCUACUGGGUUCACCUAA, the “pre-steady-state target cleavage rate” value was determined as 0.524 ± 0.065.

On to CUUUUCCUCUGGAUCUACUGGGUUGCCUAA, for which the “pre-steady-state target cleavage rate” value amounted to 0.41 ± 0.047.

Turning to CUUAACCUCUGGAUCUACUGGGCUACCUAA, the “pre-steady-state target cleavage rate” value turned out to be 0.0918 ± 0.009.

As for CUUAAGGAGUGGAUCUACUGCGUUACGUAA, the “pre-steady-state target cleavage rate” value turned out to be 0.134 ± 0.033.

Take CUAUUGCACUGGAUCUACUGGGUUACCUAA: the “pre-steady-state target cleavage rate” value was determined as 0.413 ± 0.044.

Turning to CUUAAGGAGUGGAUCUAUUGGGUUACCUAA, the “pre-steady-state target cleavage rate” value amounted to 0.018 ± 0.0049.

Regarding CAAUUCCUCUGGAUGUACUGGGUAACCUAA, the “pre-steady-state target cleavage rate” value was 0.172 ± 0.051.

For CUUAUCCUCUGGACCUACUGGGUUACCUAA, the “pre-steady-state target cleavage rate” value came out at 0.133 ± 0.017.

With GAAUUCCUCUGGAUCUACUGGCUUACCUAA, the “pre-steady-state target cleavage rate” value worked out at 0.113 ± 0.02.

Regarding CUUAAGGUCUGGAUCUACAGGGUUACCUAA, the “pre-steady-state target cleavage rate” value amounted to 0.165 ± 0.013.

Regarding CUUAUCCUCUGGAACUACUGGGUUACCUAA, the “pre-steady-state target cleavage rate” value was found to be 0.451 ± 0.034.

Turning to CUUAUCCUCUGGAUCUACUGCGUUACCAAA, the “pre-steady-state target cleavage rate” value came out at 0.349 ± 0.064.

GAAUUCCUCUGGAUCUUCUGGCUUACCUAA: the “pre-steady-state target cleavage rate” value came to 0.0526 ± 0.012.

On to CUUAAGGAGAGGAAUCUACUGGGUUACCUAA, for which the “pre-steady-state target cleavage rate” value is 0.00435 ± 0.0032.

On to CAAUUCCUCAGGAUCUACUGGGUUAGCUAA, for which the “pre-steady-state target cleavage rate” value was determined as 0.245 ± 0.051.

As to CUUAACCUGUGGAUCUACUGGGUUAGCUAA, the “pre-steady-state target cleavage rate” value amounted to 0.0587 ± 0.0086.
